This note sets out measurements from PubChem BioAssay AID463173 (ICCB-Longwood Screening Facility, Harvard Medical School, 2010).

Molecules are shown by their SMILES. In all, about 52,000 compounds went through this assay and about 4,300 (8.3%) were called active. Rule as the data show it: active = survival mostly below about 52% (no sharp cut-off); inactive = mostly above about 56%. Some of the results follow.

The experiment relates to DeltatarO mutant. In words: growth inhibition of S. aureus wild type versus tarO mutant, primary screen, teichoic acid synthesis inhibitors, RN4220, OD600 (AID 463173). The note with it: OD600, 18 h, hits give low values, screened at 18.75 µg/mL (by protocol).
`COc1ccc(-c2nc3sc(CCNC(=O)c4ccc(C(C)(C)C)cc4)c(C)n3n2)cc1`: the survival was inactive: 122%.

Take `CCOc1ccccc1C(=O)Nc1cc2c(cc1C)n(C)c(=O)c(=O)n2C`: the survival is inactive: 90%.

Turning to `COc1ccc(CNC(=O)CN(C)S(=O)(=O)c2ccc3[nH]c4c(c3c2)CCCC4)cc1`, the survival was inactive: 70%. For the molecule `Nc1nc(OC(C(F)(F)F)C(F)(F)F)nc(OC(C(F)(F)F)C(F)(F)F)n1`, the survival was active: 13%.

Turning to `CC(C)c1ccc(NC(=O)c2cc(S(=O)(=O)NCCC3=CCCCC3)ccc2F)cc1`, the survival is inactive: 75%. On to `COc1ccc(NC(=O)Cc2ccc(NC(=O)N3CCCCc4ccccc43)cc2)c(OC)c1`, for which the survival was active: 47%.

Take `CCN(CC)CCNC(=O)Cn1cnc2sc(C)c(S(=O)(=O)N3CCC(C)CC3)c2c1=O`: the survival is inactive: 105%.

With `COC(=O)c1ccc(OCC2c3cc(OC)c(OC)cc3CCN2C(=O)Cc2ccc(OC)c(OC)c2)cc1` (stereo unspecified), the survival is inactive: 87%. On to `CC(C)c1nn2c(=O)cc(COC(=O)c3ccc4c(c3)OCO4)nc2s1`, for which the survival is inactive: 94%. As for `Cc1cn2c(=O)c(S(=O)(=O)NCCc3ccc(Cl)cc3)c(C)nc2s1`, the survival was inactive: 78%.

As to `COc1cc(C(=O)Nc2nnc(CC(C)(C)C)s2)cc(OC)c1OC`, the survival was inactive: 105%. `CCc1ccc(NC(=O)C2CCCN2S(=O)(=O)c2cccc3nsnc23)cc1` (stereo unspecified): the survival was inactive: 117%.

Regarding `CC(=O)N1CCc2c(sc3c2c(=O)n(-c2ccccc2)c(=O)n3CC(=O)c2ccc(F)cc2)C1`, the survival was inactive: 89%. Under `CSc1cccc(NC(=O)c2ccc3c(c2)CCCN3S(C)(=O)=O)c1` stands inactive: 63%. For `CCCCCCn1c(/C=C/c2ccccc2)nc2ccccc21`, the survival was active: 1%. Turning to `O=C(O)CC(NC(=O)Cc1ccccc1)c1ccccc1` (stereo unspecified), the survival was inactive: 99%. Under `COc1ccc(NC(=O)c2ccc3[nH]c(C)cc(=O)c3c2)cc1` stands inactive: 95%; under `Cc1ccc(-n2cc(C(=O)OCc3ccc(Cl)cc3)c3ccccc3c2=O)cc1`, inactive: 67%.

In the case of `Cc1ccc(NC(=O)Cc2coc3c(C)c(C)ccc23)c(C)c1`, the survival was inactive: 96%. Take `Cc1ccc(CNC(=O)CN2C(=O)COc3ccc(S(=O)(=O)N4CCC(C)CC4)cc32)cc1`: the survival was inactive: 110%.

In the case of `CC(C)(C)n1nnnc1C(c1ccc2ncccc2c1)N1CCc2ccccc21` (stereo unspecified), the survival was inactive: 74%. Take `O=C(O)CC1SC(=Nc2ccc(O)cc2)NC1=O` (stereo unspecified): the survival is inactive: 95%. In the case of `CCS(=O)(=O)Nc1ccc(Cc2ccncc2)cc1`, the survival is inactive: 103%. Take `COc1cc(C2Oc3nc(SC)nnc3-c3ccccc3N2C(C)=O)cc(Cl)c1OC` (stereo unspecified): the survival is inactive: 66%. Consider `Cc1ccc(-n2ncc3c(NCc4ccccc4)ncnc32)cc1C`, for which the survival is inactive: 70%. As for `Cc1cc(Br)ccc1NC(=O)c1sc2ncn(Cc3ccccc3Cl)c(=O)c2c1C`, the survival is inactive: 72%. Under `NCc1oc(-c2ccccc2)cc1C(=O)O` stands inactive: 102%.

`O=C(CSc1oc(-c2ccco2)nc1S(=O)(=O)c1ccc(Br)cc1)c1ccc(Cl)cc1`: the survival was inactive: 52%.

As for `Cc1ccc(C)c(NC(=O)CN(Cc2ccccc2)S(=O)(=O)c2ccc3nc(C)sc3c2)c1`, the survival was inactive: 80%. `c1ccc(N2CCN(c3ncnc4c3nc3n4CCCCC3)CC2)cc1`: the survival is inactive: 89%. Consider `COC(=O)C1CCN(c2csc3ccc(C)cc3c2=O)CC1`, for which the survival was inactive: 72%. As to `CCc1nn(CCCC(=O)NCc2ccc(OC)c(OC)c2)c(=O)c2cc3occc3n12`, the survival is inactive: 79%. In the case of `CCN(CC)c1ccc(-c2nc(-c3ccccn3)no2)cc1[N+](=O)[O-]` it was active: 41%; in that of `CCCCNC(=O)CSc1nc2ccccc2nc1Cc1ccccc1`, inactive: 85%. With `C=CCNC(=O)CN1CCN(C)CC1`, the survival was inactive: 77%. As to `CC(C)Cc1nn2c(=O)cc(O)nc2s1`, the survival is inactive: 89%. In the case of `CC1=C(C(=O)Nc2cccnc2)C(c2ccc(F)cc2)n2nc(SCc3ccccc3)nc2N1` (stereo unspecified) it was inactive: 80%; in that of `Cc1cccc(NC(=O)CCS(=O)(=O)c2cc(Br)cc3c2N(C(=O)C2CC2)CC3)c1C`, inactive: 100%; in that of `Cc1cc(C)cc(NC(=O)C2CCN(c3nc(C)cc(C)n3)CC2)c1`, inactive: 76%. As to `CC1CCN(S(=O)(=O)c2cccc(C(=O)N(C)C3(C)CCS(=O)(=O)C3)c2)CC1` (stereo unspecified), the survival is inactive: 75%. Under `COc1cc(OC)c(NC(=O)CSc2nc3ccncc3[nH]2)cc1Cl` stands inactive: 112%; under `CCN1C(=O)C2C(c3ccccc3O)NC(Cc3c[nH]c4ccccc34)(C(=O)O)C2C1=O` (stereo unspecified), inactive: 61%. `CC(NC(=O)C1CCN(C(=O)N2CCOc3ccccc32)CC1)c1ccccc1` (stereo unspecified): the survival is inactive: 71%.

As to `CSc1oc(-c2ccc(F)cc2)nc1S(=O)(=O)c1ccc(Br)cc1`, the survival was active: 41%. With `CC(C)CC(NC(=O)C1CCC(C)CC1)C(=O)OCC(=O)c1ccc(Cl)cc1` (stereo unspecified), the survival is inactive: 139%. With `O=C(CSc1nc2ccccc2n1Cc1ccccc1)NCc1ccccc1`, the survival was inactive: 95%. Take `C#CC(CCN1CCCCC1)(OC)c1ccccc1` (stereo unspecified): the survival is inactive: 69%. As to `Oc1cccc2c1NCCC2`, the survival is inactive: 98%. As to `CC(C)CCNC(=O)c1ccc(NC(=O)N2CCCCc3ccccc32)cc1`, the survival was inactive: 80%.

In the case of `Cc1ccc(N2CC(NC(=O)C3CCCC3)CC2=O)cc1` (stereo unspecified), the survival was inactive: 81%.

For the molecule `COc1cccc(N2CCN(C(=O)Cn3ncc4c3-c3ccccc3OC4)CC2)c1`, the survival was inactive: 58%.

As for `CCOc1ccc(Nc2c(S(=O)(=O)c3ccccc3)cnc3ccc(CC)cc23)cc1`, the survival is active: 34%. As for `Cc1ccc(C(=O)c2cn(CC(=O)Nc3ccc4c(c3)OCCO4)c3nc(C)ccc3c2=O)cc1`, the survival was inactive: 75%.

`COc1ccc(CCC(=O)NCCc2csc(-c3cccc(F)c3)n2)cc1`: the survival is inactive: 83%. Turning to `COc1cc2c(cc1NC(=O)C(C)Oc1ccc(Cl)cc1Cl)oc1ccccc12` (stereo unspecified), the survival is active: 38%. In the case of `COc1ccc(NC(=O)c2oc3ccc4c(c3c2C)C(=O)CC(C)(C)O4)cc1OC` it was inactive: 70%. `CC1CCN(C(C(=O)O)c2ccccc2)CC1` (stereo unspecified): the survival was inactive: 98%. In the case of `COc1ccc(NC(=O)CCCN2C(=O)C(c3ccccc3)Oc3cccnc32)cc1OC` (stereo unspecified) it was inactive: 77%. For the molecule `COc1cc(-c2nnc(SCC(=O)N(C)C3CCCCC3)o2)cc(OC)c1OC`, the survival is inactive: 85%.

As for `Cc1ccc(CCNC(=O)CCCn2nc(C)c3c(C)n(-c4ccc(C)cc4)nc3c2=O)cc1`, the survival is inactive: 94%. In the case of `COc1ccc(-c2noc(CSc3nnc(-c4ccncc4)n3-c3cccc(C)c3)n2)cc1OC` it was inactive: 76%; in that of `CCS(=O)(=O)N1CCN(c2nc(C)nc3sc4c(c23)CCC(C)C4)CC1` (stereo unspecified), inactive: 102%. With `Cc1ccc(-c2cc(-c3coc4ccccc4c3=O)c3c(n2)-c2cc(Cl)ccc2OC3)cc1`, the survival was inactive: 87%.

Turning to `Cc1cc(C)cc(NC(=O)NCC2CCN(Cc3cc(C)ccc3C)CC2)c1`, the survival is inactive: 94%. As to `CC(=O)Nc1ccc(-c2nnc3n(CC(C)C)c(=O)c4ccccc4n23)cc1`, the survival is inactive: 96%. Under `COc1ccccc1NC(=O)Cn1c(SCC(=O)NCc2ccccc2)nc2ccccc21` stands inactive: 70%; under `Cc1ccc(N2C(=O)[C@@H]3CSC(c4ccc(C(F)(F)F)cc4)N3C2=O)cc1` (stereo partly specified), inactive: 129%.

Consider `COc1cccc(-c2nc(SC(C(C)=O)C(=O)N(C)C)c3c(=O)n(C)c(=O)n(C)c3n2)c1` (stereo unspecified), for which the survival was inactive: 69%.

As for `CCOC(=O)C1=C(CNCc2ccccc2)NC(=O)NC1c1ccc(C)cc1` (stereo unspecified), the survival is inactive: 63%. For the molecule `COc1ccc(C(=O)CC(=O)c2ccccc2O)cc1`, the survival was inactive: 71%.

As for `COc1ccc(N2CCN(S(C)(=O)=O)CC2)cc1`, the survival is inactive: 86%. On to `COc1ccc(-n2c(=O)c3c(C)c(C)sc3n(Cc3ccc(F)cc3)c2=O)c(OC)c1`, for which the survival is inactive: 60%.

Take `Cc1ccc(S(=O)(=O)N2CCCc3cc(NC(=O)c4ccc(C(F)(F)F)cc4)ccc32)cc1`: the survival was inactive: 94%. For the molecule `Cc1cc(N2CCN(C)CC2)nc2ccc(NC(=O)Nc3ccccc3Cl)cc12`, the survival is inactive: 87%. On to `Cc1ccc(OCC(=O)OCc2cc(=O)n3nc(C4CCCCC4)sc3n2)cc1`, for which the survival was inactive: 120%. For the molecule `CCN(c1ncnc2c1c(-c1ccccc1)cn2-c1ccccc1)C1CCCCC1`, the survival is inactive: 96%. Under `Cc1nc(N2CC(C)OC(C)C2)c2nnn(Cc3c(F)cccc3Cl)c2n1` (stereo unspecified) stands inactive: 98%; under `COc1ccc(OC)c(CCNC(=O)c2sc3nc4n(c(=O)c3c2C)CCCC4)c1`, inactive: 80%. Take `CCOc1ccccc1NS(=O)(=O)c1c(C(=O)OC)sc2cccc(F)c12`: the survival is active: 20%. Under `COc1ccc(N(C(=O)c2ccccc2C)S(=O)(=O)c2ccc3c(c2)n(C)c(=O)n3C)cc1` stands inactive: 86%.

For `CCNc1c(NC(=O)c2ccccc2OCC)c(=O)oc2ccccc12`, the survival is inactive: 100%.

Consider `CSCCC(NC(=O)C1CCCCC1)C(=O)Nc1ccc(F)c(Cl)c1` (stereo unspecified), for which the survival is inactive: 64%. With `Cc1cc(O)c(C(c2ccccc2Cl)N2CCCCC2)c(=O)n1Cc1ccco1` (stereo unspecified), the survival is inactive: 76%. Turning to `Cc1ccc(C(C)C)c(OCC(=O)Nc2c(C(=O)c3ccc(F)cc3)oc3ccccc23)c1`, the survival was inactive: 79%.

With `Cc1c2cnn(CC(=O)N3CCCCC3)c(=O)c2c(C)n1Cc1ccc(Cl)cc1`, the survival is inactive: 64%. With `Cc1ccc(NC(=O)c2ccc3c(=O)n4nc(Nc5ccccc5C)sc4nc3c2)cc1C`, the survival was inactive: 83%. As for `CCc1ccc(C2N3CC4(C)CN2CC(c2ccccc2)(C3)C4=O)cc1` (stereo unspecified), the survival was inactive: 105%. Take `CCn1cc(C(=O)NCc2ccccc2)c(=O)c2cc(S(=O)(=O)N3CCOCC3)ccc21`: the survival was inactive: 76%. `O=C(COC(=O)c1ccco1)Nc1nc2ccccc2s1`: the survival was inactive: 76%. On to `CCOc1ccccc1NC(=O)C1CCN(S(=O)(=O)Cc2ccccc2)CC1`, for which the survival is inactive: 62%. As to `Cc1cc(=O)n(C(C)C(=O)NCc2ccccc2Cl)c2c1c(C)nn2-c1ccccc1` (stereo unspecified), the survival is inactive: 99%.
